Source: PubChem BioAssay AID1671193 (National Center for Advancing Translational Sciences (NCATS), 2021)
Where “and” joins values, the source holds several entries; their conditions need not be identical. Equal entries are not always repeated. The whole screen tested about 150,000 compounds, of which about 180 (0.12%) were called active. The inconclusive results got no clear call from the source; some entries with a clear call stand among them for comparison. Calls come from the whole dose curve; as a rule, active = well fitted cell-killing curve with a large enough effect; inconclusive = small, poorly fitted or top-dose-only effect, or effect the other way; inactive = flat fitted curve, though single readings scatter. Potencies of inconclusive entries are doubtful fits and often do not repeat.

Experiment: GF-AFC viability counterscreen for inhibitors of alpha-synuclein gene (SNCA) expression; note: nearly all actives have a fitted effect of over 30% in size;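 for activity change, negative = cytotoxicity: 0% = DMSO-treated cells and -100% = medium-only wells without cells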
Conditions: HEK-293-SNCA-luc viability, GF-AFC fluorescence, 24 h; activity change, negative = cytotoxicity: at 57.1 µM (top of the series) unless noted
Summary of the method: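 Cytotoxicity counterscreen: after 24 h compound treatment of genome-edited SNCA-luciferase HEK-293 cells, live-cell protease substrate GF-AFC read by fluorescence after 30 min; activity scaled between DMSO (0%) and medium-only (-100%), curves Hill-fitted.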
Potency is the fitted concentration of half-maximal effect; tags give direction and shape of the fitted curve.

SMILES | Potency | activity change, negative = cytotoxicity
CCc1noc(-c2cn(C3CCN(C(=O)c4ccc(C(C)(C)C)cc4)C3)nn2)n1 (stereo not given) | inconclusive: 25.1 µM [cytotoxic, single point] | –
CC(=O)Nc1nc2n(n1)C(c1ccc(F)cc1)C=C(c1ccc(Cl)cc1)N2 (stereo not given) | inconclusive: 35.5 µM [rising, partial curve] | –
O=C1COc2ccc(-c3ccccc3)nc2CN1Cc1ccccc1F | inactive | –
O=C(c1ccccc1F)N1CCCC(C(=O)N2CCC(c3nc4ccncc4[nH]3)C2)C1 (stereo not given) | inactive | –
C=C[C@@H]1[C@H](O[C@@H]2O[C@H](CO)[C@@H](O)[C@H](O)[C@H]2O)OC=C(C(=O)O)[C@H]1CCOC(=O)/C=C/c1ccc(O)c(O)c1 | inactive | –
O=C(NC1CCCC1)N1CCC(Oc2ccccc2-c2nc(-c3ccncc3)no2)C1 (stereo not given) | inconclusive: 11.2 µM [cytotoxic, partial curve, poor fit] | –
CCN1c2cc(C(=O)NC3CCN(Cc4ccccc4)CC3)ccc2C(=O)N2CCCCC21 (stereo not given) | inconclusive: 8.91 µM [rising, single point] | –
CC1CCCN(C(=O)c2cc3ccc4cccnc4c3[nH]2)C1 (stereo not given) | inconclusive: 14.1 µM [cytotoxic, partial curve, poor fit] | –
CCCCN1CC(c2nc3ccccc3n2CCCCOc2cc(C)ccc2C)CC1=O (stereo not given) | inconclusive: 35.5 µM [cytotoxic, single point] | –
COc1cccc(CNC(=O)c2cccc3c2CCN3C(=O)c2ccc(F)cc2)c1 | inconclusive: 39.8 µM [cytotoxic, single point] | –
CCc1nc2ccc(C(=O)NCCc3ccccc3OC)cc2nc1CC | inconclusive: 31.6 µM [cytotoxic, single point] | –
Cc1ccc(-c2nnc([C@H]3CCN(C(=O)NC4CCCCC4)C3)o2)cc1 | inconclusive: 20 µM [cytotoxic, partial curve, poor fit] | –
CCN1C(=O)CCN(C(=O)c2ccc(C)nc2)CC12CCOCC2 | inconclusive: 4.47 µM [cytotoxic, single point] | –
CN1Cc2nc(-c3cnn(C)c3)ccc2OCC1=O | inactive | –
CC(C)C(=O)NC1CCN(c2ccnc3ccnn23)C1 (stereo not given) | inactive | –
COc1ccc(NC(=O)[C@H]2O[C@@H]3OC(C)(C)O[C@@H]3[C@H]3OC(C)(C)O[C@H]32)c(OC)c1 | inconclusive: 1.26 µM [rising, full curve, poor fit] | –
O=C(c1ccc(C(F)(F)F)cc1)N1CCC(C(=O)N2CCC(N3CCOC3=O)CC2)CC1 | inactive | –
CCCn1cc(-c2ccnc(NCc3c(F)ccc(C)c3F)n2)c(C)n1 | inactive | –
CCCCCOc1ccc(/C=C/C(=O)Nc2sc(C)c(C)c2C(=O)OCC)cc1OC | inconclusive: 2 µM [cytotoxic, single point] | –
CC(=O)N1C[C@@H]2CCCN3CCC[C@@H]([C@H]23)[C@H]1CCCC(=O)N(C)C | inactive | –
O=C(Nc1ccc2c(N3CCCC3)ncnc2c1)c1ccccc1Br | inconclusive: 28.2 µM [cytotoxic, partial curve, poor fit] | –
CCN(CC)c1nc2ccccc2nc1C(=O)Nc1ccc(C(C)=O)cc1 | inconclusive: 15.8 µM [cytotoxic, partial curve, poor fit] | –

SMILES | Potency | activity change, negative = cytotoxicity
Cc1ccc(C)c(S(=O)(=O)N2c3ccccc3CC2c2nc(C(C)C)no2)c1 (stereo not given) | inconclusive: 0.631 µM [cytotoxic, full curve, poor fit] | –
O=C(NCCc1ccccc1F)c1ccc2nnc(-c3cc(C(F)(F)F)cc(C(F)(F)F)c3)n2c1 | inconclusive: 17.8 µM [cytotoxic, partial curve] | –
O=C(c1nnn2cc(-c3ccccc3)[nH]c(=O)c12)N1CCCCCC1 | inactive | –
Cc1cccc(-c2ccccc2CN)c1 | inactive | –
Cc1ccc(-c2nc(C)c(CCNC(=O)c3cccs3)s2)cc1 | inactive | –
COc1ccc(-c2[nH]nc3ncc(C(=O)NCc4ccccc4)nc23)c(C)c1 | inconclusive: 31.6 µM [cytotoxic, partial curve, poor fit] | –
COc1ccc(C(=O)N[C@@H]2CCC[C@@H]2C(=O)N2CCN(c3ccccc3OC)CC2)cc1 | inconclusive: 28.2 µM [cytotoxic, partial curve, poor fit] | –
O=C(C1CC1)N1CCCC(c2nn(-c3ccc(Cl)cc3)c(=O)[nH]2)C1 (stereo not given) | inactive | –
O=C(NCc1cccc(Cl)c1)c1cn2cc(-c3ccc(C(F)(F)F)cc3)sc2n1 | inactive | –
COCCN1CCN(Cc2ccc(-c3n[nH]c4c3C(=O)c3c(NC(=O)NN5CCOCC5)cccc3-4)cc2)CC1 | active: 0.15 µM | –
CCn1cc(-c2cc(C(=O)N3CCCCCC3)c3cccc(C)c3n2)cn1 | inconclusive: 22.4 µM [cytotoxic, single point] | –
COc1ccc(-c2cc3c(=O)n(CCNC(=O)c4ccc(OC)cc4OC)ccn3n2)cc1 | inconclusive: 25.1 µM [cytotoxic, partial curve] | –
COc1ccc(S(=O)(=O)NCCc2csc3nc(-c4ccc(OC)c(OC)c4)nn23)cc1C | inconclusive: 17.8 µM [cytotoxic, partial curve, poor fit] | –
CN(C)S(=O)(=O)N1CCc2nc3cc(-c4ccccc4)[nH]n3c(=O)c2C1 | inactive | –
O=C(c1ccc2nccn2c1)N1CCCC1 | inactive | –
CC1Oc2ccc(NC(=O)Cc3ccccc3)cc2CN(Cc2ccc(F)cc2)C1=O (stereo not given) | inconclusive: 35.5 µM [cytotoxic, single point] | –
O=C(NCC(F)(F)F)c1nc2sccn2c1-c1ccncc1 | inactive | –
CC(C)=CCC/C(C)=C/CO[C@@H]1O[C@H](CO[C@@H]2O[C@@H](CO)[C@H](O)[C@H]2O)[C@@H](O)[C@H](O)[C@H]1O | inactive | –
COC[C@@H]1CN(C(=O)c2ccc(OC)nc2)C[C@H]1c1nc(C)no1 | inconclusive: 31.6 µM [cytotoxic, single point] | –
CN(C)CCN(C)[C@@H]1[C@H](O)[C@H](CO)O[C@@H]1CN(Cc1ccc(Cl)cc1)Cc1cccc(Cl)c1 | inconclusive: 39.8 µM [cytotoxic, single point] | –
O=C1NCCCCCCN(C(=O)c2ccccn2)[C@H]2CCC[C@@H]12 | inconclusive: 25.1 µM [cytotoxic, single point] | –
COc1ccc(Cl)cc1NC(=O)N1CCCC(Cn2cnc3cccnc32)C1 (stereo not given) | inconclusive: 5.01 µM [cytotoxic, full curve, poor fit] | –

SMILES | Potency | activity change, negative = cytotoxicity
CC(=O)N1CCc2cc(S(=O)(=O)NC(Cc3ccccc3)C(=O)Nc3cccc(C)c3)ccc21 (stereo not given) | inconclusive: 7.08 µM [rising, single point] | –
Fc1ccc(Nc2cc3c(cn2)CN(Cc2ccccc2)CCN3)cc1 | inconclusive: 28.2 µM [cytotoxic, partial curve, poor fit] | –
O=C(CC1CCCN(c2cnn(CC3CC3)c(=O)c2)C1)NCCc1c[nH]c2ccccc12 (stereo not given) | inactive | –
c1csc(CNc2cc(-c3ccoc3)ncn2)c1 | inactive | –
NCCCNc1ccc(Nc2nccc(Nc3cc(C4CC4)[nH]n3)n2)cc1 | inconclusive: 2.67 µM [cytotoxic, full curve, poor fit] | –
COC(=O)c1scc(-c2ccc(C)cc2)c1S(=O)(=O)Nc1ccc(N(C)C)cc1 | inconclusive: 17.8 µM [cytotoxic, partial curve] | –
COc1ccc(C(=O)N2CCOC3(CCN(C(=O)C(N)Cc4ccccc4)CC3)C2)cc1 (stereo not given) | inconclusive: 15.8 µM [cytotoxic, partial curve, poor fit] | –
COc1cccc(S(=O)(=O)N2CCCC(c3nc(CCOCC4CC4)no3)C2)c1 (stereo not given) | inconclusive: 4.47 µM [cytotoxic, single point] | –
COc1ccc(CN2C(=O)[C@@H]3C[C@@H](O)CN3C3(CN(Cc4cccc(OC)c4)C3)C2=O)cc1 | inactive | –
O=C(NCc1ccc2c(c1)OCO2)c1csc(N2CCN(c3ccc(F)cc3)CC2)n1 | inconclusive: 22.4 µM [cytotoxic, single point] | –
COc1ccc(C(=O)Nc2cc(-c3ccncc3)nn2-c2ccccc2)cc1 | inconclusive: 1.41 µM [cytotoxic, full curve, poor fit] | –
O=C(Nc1c(-c2ccc(F)cc2)nc2ccccn12)c1ccccc1F | inconclusive: 1.26 µM [cytotoxic, full curve, poor fit] | –
CC1(C(=O)NC2CCOCC2)COCc2cnc(Nc3ccccc3)nc21 (stereo not given) | inactive | –
CC(=O)N1Cc2ccccc2CC2(CCCN(C)C2)C1 (stereo not given) | inactive | –
COC[C@@H]1CN(C(=O)CCc2ccc(OC)cc2)C[C@H]1c1ccncc1 | – | inconclusive: 4.92%
CN(C)Cc1c(C(=O)NCCOc2ccc(C(=O)NO)cc2)oc2ccccc12 | inactive and inconclusive: 16.8 µM [cytotoxic, partial curve, poor fit] | –
COc1ccccc1C(=O)Nc1c(C(=O)N(C)Cc2ccccc2)sc2nc(C)c(Cl)c(C)c12 | inconclusive: 22.4 µM [cytotoxic, single point] | –
CN1CCN(c2ncc3nc(-c4ccccc4)c(=O)n(C)c3n2)CC1 | inconclusive: 28.2 µM [rising, partial curve] | –
CCCCOc1ccc(CN2C(=O)C(=O)c3cc(Br)cc(C)c32)cc1OC | inconclusive: 31.6 µM [cytotoxic, single point] | –
COc1ccc(-c2nc3cc(C)ccn3c2NC(=O)c2ccc(C)c(C)c2)cc1 | inconclusive: 22.4 µM [cytotoxic, partial curve, poor fit] | –
CC(C)CC1N=C2c3ccccc3N=C(SCC(=O)NCCc3ccc(Cl)cc3)N2C1=O (stereo not given) | inconclusive: 22.4 µM [cytotoxic, single point] | –
